From patent EP1226824A1, “Use of thalidomide for the treatment of hepatocellular carcinoma” (TTY Biopharm Company Limited, priority 2001, dated 2002)

Columns and labels:
[1] = in water, methanol, ethanol or acetone; cited from earlier work

## O=C1CCC(N2C(=O)c3ccccc3C2=O)C(=O)N1 (stereo not shown) [thalidomide, 2-(2,6-dioxo-3-piperidinyl)-1H-isoindolle-1,3(2H)-dione]
[1]
  solubility: sparingly soluble
Hepatocellular carcinoma; after treatment with thalidomide, result in words
  variation of the serum level of alpha-fetoprotein (Figure 5): significantly decreased
Hepatocellular carcinoma; after two weeks of thalidomide 100 mg twice daily
  right upper quadrant tenderness: significantly relieved
Hepatocellular carcinoma; human, in vivo
  side effects, such as arrest of bone marrow or hepatotoxicity: without significant side effects
